Measured values taken from the supplement of paper PMC11417369.
± gives the standard deviation of the averaged measurements. Some of the results follow.

Test system: PfAP2-G AP2 domain (GST-tagged)
Assay: gcPBM binding intensity (ln(normalized median fluorescence intensity)); higher = stronger DNA binding
In short: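 The binding buffer was 1× PBS containing 1% milk, 0.2 mg/ml BSA, 0.5% salmon testes DNA and 0.03% Triton X-100. In it, GST-tagged P. falciparum DNA-binding domains expressed in E. coli were applied for 1 h to an Agilent 4 × 180k array of primer-extended double-stranded 36-bp intergenic genomic probes plus negative controls. Binding intensity, read with Alexa488 anti-GST antibody and a 488 nm scan, is the highest Masliner-normalised natural-log median intensity across replicate spots of either probe orientation.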

Sequence | gcPBM binding intensity (ln)
CATATACGCAAACACACACACATATATATATATATA [CACACA_site501] | 10.3 ± 0.35
AGGTATATATATTTATGTACTTAAAATGAGAAAATA [XGTACX_site8337] | 11.4 ± 0.81
TCTTAAATTTCTTTATGTACATAATTAATATATTTA [XGTACX_site4456] | 11.2 ± 0.59
TATATATTATGACCACCACACACCTATACGCATAAC [CACACA_site2447] | 11.4 ± 0.81
TATCGTTATATAATATGTACATATAAAATTTAAATT [XGTACX_site1887] | 11.3 ± 0.72
AAAATGTATATATAAACATGCACACGTGGTTGTATA [TGCATGCA_site847] | 10.29 ± 0.049
ATATATATATATATTGTACACACATTTATGCATATA [CACACA_site9055] | 11.3 ± 0.57
TGTGGGAATAACCACACACACACACCCATATATATA [CACACA_site5876] | 10.1 ± 0.18
AAATGCAAATGATGATGTACATACAAAAATTAAATT [XGTACX_site5323] | 11.2 ± 0.69
ATGATAGTATGTATGAGTACGAAAAAAAAAAATTAA [XGTACX_site32] | 11 ± 0.62
TTTTCTTAAAAAATCAAACACACATATATATATACA [CACACA_site2297] | 9.92 ± 0.16
ATATATATATATATATGTACATATCACTTTAAATAT [XGTACX_site3859] | 11.1 ± 0.57
TATAATATGAACAGTACACACAAAATAAATTCGTAT [CACACA_site3586] | 11.1 ± 0.67
ATTCAAAATAATAGAATTGTTAAAGTTGTAAATTGA [CACACA_negctrl_site727] | 9.72 ± 0.26
ACGTATCAAAAAATTTGTACATATATATATATATAT [XGTACX_site1024] | 10.8 ± 0.47
GAACAGAAAAAGAATAGTACATATATATATATATAT [XGTACX_site3700] | 10.9 ± 0.73
CTCAAACAATATTATATAATAAAGTACATATATATT [CACACA_negctrl_site446] | 11.3 ± 0.86
AAAAATAAATATACATGTACTTAAAATAATCGAATA [XGTACX_site8432] | 11.2 ± 1
TATATTTTTATATTTTGTACATATAGTAAATATAAA [XGTACX_site4768] | 10.8 ± 0.51

Sequence | gcPBM binding intensity (ln)
AAAAATATATAAAGAAAAAGAATATAATATAAAATA [GTGCAC_negctrl_site208] | 9.64 ± 0.17
ATTGTAGAATTTAATAGTACTCACGAATAAAATAAA [XGTACX_site6280] | 11.2 ± 0.59
TATTAAAATATGTCAGTTCTTAAAAAGTTGATGAGT [GTGCAC_negctrl_site77] | 10 ± 0.14
TATGATTCATAATAGTGTACGTAAAAATTGACTAGA [XGTACX_site5376] | 11.7 ± 1
AAAAAAAAAGTATTATGTACATAAAAATAAAAAAAT [XGTACX_site4166] | 11.2 ± 0.69
GTTTATGTTAAACCATGTACTTAATATTTTATTCTT [XGTACX_site3761] | 11.2 ± 0.69
CACATACATATATATACACACAAATATATATACACA [CACACA_site8164] | 10.1 ± 0.2
GATATAAAATATTGGTGTACTTTTTTTTTTTTTTTT [XGTACX_site7174] | 11.5 ± 0.85
GTATGTGTGTCAAGTCGTACTTACCTTTAAATTTTT [XGTACX_site2507] | 11.2 ± 0.56
TTACCGTAAAAATTTTGTACATAAAATAATATATAA [XGTACX_site532] | 11 ± 0.61
TTTTTTTGTTTTGTTTTTTTTTTTTTTTTTTTTTTG [CACACA_negctrl_site570] | 9.64 ± 0.014
ACCATGAAAATATTATGTACATATGTATTATATATA [XGTACX_site408] | 11.3 ± 0.8
GAGTGAGCTAATAAAAGTACGTAATAAACAAACGCA [XGTACX_site131] | 11.2 ± 0.91
ATAGCTGTATTTAATACACACAAAACTTTCATTCCA [CACACA_site5868] | 10.02 ± 0.028
TTTTTATATTTTTGCACACATTCTTTACTCTTCAAA [CACACA_site2210] | 10.2 ± 0.13
TATATATATGGACACACACACATATAAATAAATAAA [CACACA_site4406] | 10.9 ± 0.6
TTAAAAAAAAAACACACACACATACACATATATATA [CACACA_site3299] | 9.985 ± 0.092
TTTTTTTTTTTTTTTTTTTCTATTTTACTGTTTCGT [CACACA_negctrl_site850] | 9.54 ± 0.34
ATAATTAATAAATAATGTACATATATATTATATTTT [XGTACX_site8546] | 11.1 ± 0.6

Sequence | gcPBM binding intensity (ln)
TGTGAAGTACCGAATGTGCACTGTGTGTGTTCTTTT [GTGCAC_site9613] | 10.9 ± 0.42
TACTATAAGATATATACACACAAGAAATACAAAACG [CACACA_site6764] | 10.2 ± 0.2
ATGATTATTTTAAAAAGTACTAATTATTATTTTTTT [XGTACX_site7242] | 10.9 ± 0.69
GAATATGAATATTTGCGTACTTATATAACTGTTCTA [XGTACX_site883] | 11.3 ± 0.54
AAAAAAAATAATAATACACACAATATGATATGTACA [CACACA_site850] | 10.4 ± 0.17
ATACACATTCGAAATAACAAAAAAATACATACACAT [GTGCAC_negctrl_site628] | 10.2 ± 0.13
TTAATACATATATATATATTATATATATATATATAT [TGCATGCA_negctrl_site177] | 9.69 ± 0.39
ATATATGTATATTTTTGTACGCATAAATATATTTTT [XGTACX_site827] | 11.3 ± 0.83
TTTTTATACAATTAGACACACACAAAAAGTATATAT [CACACA_site8272] | 10.3 ± 0.18
TGCTTAATTTACGTGGGTACATACACCTCATATATT [XGTACX_site3093] | 11.3 ± 0.82
CCCTTTTATTAAAATTCACACACATAAATTTTTATA [CACACA_site8611] | 10.1 ± 0.19
ATTATTTTAATTTTAATTTTTTTTTTTTTTTGTTTT [CACACA_negctrl_site1063] | 9.39 ± 0.085
TATTTTTCCATAAAAATTTATATAGAAACAAATAAT [GTGCAC_negctrl_site103] | 10.1 ± 0.33
TATATGCATATACATACACACATAACACATACGTTT [CACACA_site3832] | 10.04 ± 0.021
TTTCTAATTCTTAGTGGTACACAGTTCTGCTGATAT [XGTACX_site2391] | 11.4 ± 0.96
ATATGTCACTTGTATACACACATATAGATTTCAATC [CACACA_site7519] | 10.2 ± 0.2
AAGCTATATATAGGCAGTACTTTGTAAGTGTAGATA [XGTACX_site8365] | 10.6 ± 0.34
AAAAAAAAAAAAAAAACACACAGAACAATATATAAA [CACACA_site4698] | 10.3 ± 0.18
